Assay results as given in the antibiotic and cytotoxicity screens of Wong et al. (2023).
This is one part of the list.

What was measured:
[1] = test system: HSkMC (human skeletal muscle cells); assay: cytotoxicity call (relative viability < 0.9); settings: 10 µM
[2] = test system: S. aureus RN4220; assay: growth inhibition call (relative growth <= 0.2); settings: 50 µM

| Compound | cytotoxicity call [1] | growth inhibition call [2] |
| --- | --- | --- |
| CC(C)NC(=O)[C@@H]1c2ccccc2C(=O)N(Cc2cc(C(F)(F)F)cc(C(F)(F)F)c2)[C@H]1c1ccc(CO)cc1 | inactive | inactive |
| C[C@@H]1CCCCO[C@@H](CN(C)Cc2ccc(C(F)(F)F)cc2)[C@H](C)CN([C@@H](C)CO)C(=O)c2cc(NS(=O)(=O)c3cccs3)ccc2O1 | inactive | inactive |
| C[C@@H]1CN([C@H](C)CO)C(=O)c2cc(NS(=O)(=O)c3cn(C)cn3)ccc2O[C@H]1CN(C)C(=O)NC1CCCCC1 | inactive | inactive |
| COc1ccc(S(=O)(=O)N(C)C[C@H]2Oc3ccc(NC(=O)CCCN(C)C)cc3C(=O)N([C@@H](C)CO)C[C@@H]2C)cc1 | inactive | inactive |
| C[C@@H]1CN([C@@H](C)CO)C(=O)c2cc(NS(=O)(=O)c3ccc(Cl)cc3)ccc2O[C@H]1CN(C)Cc1ccc(-c2ccccc2)cc1 | active | inactive |
| C[C@@H]1CCCCO[C@H](CN(C)S(=O)(=O)c2ccc(Cl)cc2)[C@H](C)CN([C@@H](C)CO)C(=O)c2cc(NC(=O)C3CCCCC3)ccc2O1 | inactive | inactive |
| C[C@@H]1CCCCO[C@H](CN(C)Cc2ccc(C(=O)O)cc2)[C@@H](C)CN([C@H](C)CO)C(=O)c2cc(NC(=O)C3CCCCC3)ccc2O1 | inactive | inactive |
| C[C@@H]1CN([C@H](C)CO)C(=O)c2cc(NS(=O)(=O)c3ccc(F)cc3)ccc2O[C@@H](C)CCCCO[C@@H]1CN(C)Cc1ccc2c(c1)OCO2 | inactive | inactive |
| C[C@H]1CN([C@@H](C)CO)C(=O)c2cccc(NC(=O)C3CCCCC3)c2O[C@H]1CN(C)Cc1ccc(-c2ccccc2)cc1 | inactive | inactive |
| C[C@@H]1CN([C@@H](C)CO)C(=O)c2cccc(NC(=O)c3ccncc3)c2O[C@H]1CN(C)S(=O)(=O)c1cccs1 | inactive | inactive |
| C[C@@H]1CN([C@H](C)CO)C(=O)c2cc(NS(=O)(=O)c3ccccc3)ccc2O[C@@H](C)CCCCO[C@@H]1CN(C)S(C)(=O)=O | inactive | inactive |
| C[C@@H]1CN([C@H](C)CO)C(=O)c2cc(NC(=O)NC3CCCCC3)ccc2O[C@@H](C)CCCCO[C@H]1CN(C)C(=O)Nc1ccc(C(F)(F)F)cc1 | inactive | inactive |
| COCCCNC(=O)[C@@]1(Cc2ccccc2I)c2ccccc2C(=O)N(Cc2ccccc2OC)[C@H]1c1ccc(CO)cc1 | inactive | inactive |
| C[C@@H]1CN([C@@H](C)CO)C(=O)c2cc(NC(=O)C3CCCCC3)ccc2O[C@@H](C)CCCCO[C@@H]1CN(C)CC1CCCCC1 | inactive | inactive |
| C[C@H]1CN([C@@H](C)CO)C(=O)Cc2cc(NC(=O)Nc3cccc4ccccc34)ccc2O[C@@H]1CN(C)Cc1ccc2c(c1)OCO2 | inactive | inactive |
| C[C@H]1CN([C@@H](C)CO)C(=O)c2cc(NC(=O)Nc3cccc4ccccc34)ccc2O[C@H]1CN(C)S(=O)(=O)c1cccs1 | inactive | inactive |
| C[C@@H]1CN([C@H](C)CO)C(=O)c2cc(NS(=O)(=O)c3cccs3)ccc2O[C@@H](C)CCCCO[C@@H]1CN(C)C(=O)CCC(F)(F)F | inactive | inactive |
| CC(C)(c1cc(Br)c(O)c(Br)c1)c1cc(Br)c(O)c(Br)c1 | inactive | active |
| COc1ccc(NC(=O)N(C)C[C@H]2OCCCC[C@H](C)Oc3ccc(NC(=O)NC4CCCCC4)cc3C(=O)N([C@H](C)CO)C[C@@H]2C)cc1 | inactive | inactive |
| Cc1ccc(S(=O)(=O)N(C)C[C@@H]2Oc3ccc(NC(=O)C4CC4)cc3C(=O)N([C@H](C)CO)C[C@@H]2C)cc1 | inactive | inactive |
| Cc1ccc(S(=O)(=O)Nc2ccc3c(c2)C(=O)N([C@@H](C)CO)C[C@H](C)[C@@H](CN(C)Cc2ccc4c(c2)OCO4)OCCCC[C@H](C)O3)cc1 | inactive | inactive |
| C=CCn1c(N2CCN(c3ccc(OC)cc3)CC2)nc2c1c(=O)n(C)c(=O)n2C | inactive | inactive |
| C[C@H]1CN([C@@H](C)CO)C(=O)c2cc(NC(=O)Cn3cnnn3)ccc2O[C@@H]1CN(C)S(C)(=O)=O | inactive | inactive |
| O=C1OC(c2cc(I)c(O)c(I)c2)(c2cc(I)c(O)c(I)c2)c2ccccc21 | inactive | inactive |
| C[C@@H]1CN([C@@H](C)CO)C(=O)c2cc(NC(=O)c3ccccc3)ccc2O[C@@H](C)CCCCO[C@H]1CN(C)Cc1ccncc1 | inactive | inactive |
